# According to the supplement of paper PMC8728848:
# The other results are listed elsewhere or left out.
# Legend:
# Assay in all cases: glycan array binding signal (z-score within array); higher = stronger binding
# Conditions in all cases: glycan notation: IUPAC condensed, linker removed
# Neu5Ac(a2-3)Gal = target: Neu5Ac(a2-3)Gal
# How it was run: (§1)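 Glycan array data were curated from 3228 arrays in the Consortium for Functional Glycomics database and kept only where the protein sequence was available. Glycan names were converted to IUPAC-condensed notation, and columns mapping to the same glycan were averaged. The binding signal is a within-array Z-score, averaged across arrays of the same protein sequence at different concentrations or buffers and across linkers. Negative Z-scores can be read as non-binding.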
# [1] = target: Neu5Ac(a2-3)Gal(b1-3)GalNAc
# How it was run: as §1
# [2] = target: Neu5Ac(a2-3)Gal(b1-3)GalNAc(b1-3)Gal(a1-4)Gal(b1-4)Glc
# How it was run: as §1
# [3] = target: Neu5Ac(a2-3)Gal(b1-3)GalNAc(b1-4)Gal(b1-4)Glc
# How it was run: as §1
# [4] = target: Neu5Ac(a2-3)Gal(b1-3)GalNAc(b1-4)[Neu5Ac(a2-3)]Gal(b1-4)Glc
# How it was run: as §1
# [5] = target: Neu5Ac(a2-3)Gal(b1-3)GalNAc(b1-4)[Neu5Ac(a2-8)Neu5Ac(a2-3)]Gal(b1-4)Glc
# How it was run: as §1
# [6] = target: Neu5Ac(a2-3)Gal(b1-3)GalNAc6S
# How it was run: as §1
# [7] = target: Neu5Ac(a2-3)Gal(b1-3)GlcNAc
# How it was run: as §1
# [8] = target: Neu5Ac(a2-3)Gal(b1-3)GlcNAc(b1-2)Man
# How it was run: as §1
# [9] = target: Neu5Ac(a2-3)Gal(b1-3)GlcNAc(b1-2)Man(a1-3)[GlcNAc(b1-4)][Neu5Ac(a2-3)Gal(b1-3)GlcNAc(b1-2)Man(a1-6)]Man(b1-4)GlcNAc(b1-4)GlcNAc
# How it was run: as §1
# [10] = target: Neu5Ac(a2-3)Gal(b1-3)GlcNAc(b1-2)Man(a1-3)[Neu5Ac(a2-3)Gal(b1-3)GlcNAc(b1-2)Man(a1-6)]Man(b1-4)GlcNAc(b1-4)GlcNAc
# How it was run: as §1
# [11] = target: Neu5Ac(a2-3)Gal(b1-3)GlcNAc(b1-2)[Neu5Ac(a2-3)Gal(b1-3)GlcNAc(b1-4)]Man(a1-6)[Neu5Ac(a2-3)Gal(b1-3)GlcNAc(b1-2)Man(a1-3)]Man(b1-4)GlcNAc(b1-4)GlcNAc
# How it was run: as §1
# [12] = target: Neu5Ac(a2-3)Gal(b1-3)GlcNAc(b1-3)Gal(b1-3)GlcNAc
# How it was run: as §1
# [13] = target: Neu5Ac(a2-3)Gal(b1-3)GlcNAc(b1-3)Gal(b1-4)GlcNAc
# How it was run: as §1
# [14] = target: Neu5Ac(a2-3)Gal(b1-3)GlcNAc(b1-3)GalNAc
# How it was run: as §1
# [15] = target: Neu5Ac(a2-3)Gal(b1-3)GlcNAc(b1-6)GalNAc
# How it was run: as §1
# [16] = target: Neu5Ac(a2-3)Gal(b1-3)GlcNAc6S
# How it was run: as §1
# [17] = target: Neu5Ac(a2-3)Gal(b1-3)[Fuc(a1-4)]GlcNAc
# How it was run: as §1
# [18] = target: Neu5Ac(a2-3)Gal(b1-3)[Fuc(a1-4)]GlcNAc(b1-3)Gal(b1-3)[Fuc(a1-4)]GlcNAc
# How it was run: as §1
# [19] = target: Neu5Ac(a2-3)Gal(b1-3)[Fuc(a1-4)]GlcNAc(b1-3)Gal(b1-4)[Fuc(a1-3)]GlcNAc
# How it was run: as §1
# [20] = target: Neu5Ac(a2-3)Gal(b1-3)[GlcNAc(b1-6)]GalNAc
# How it was run: as §1
# [21] = target: Neu5Ac(a2-3)Gal(b1-3)[Neu5Ac(a2-6)]GalNAc
# How it was run: as §1
# [22] = target: Neu5Ac(a2-3)Gal(b1-3)[Neu5Ac(a2-6)]GlcNAc(b1-3)[Fuc(a1-3)[Gal(b1-4)]GlcNAc(b1-6)]Gal(b1-4)Glc
# How it was run: as §1
# [23] = target: Neu5Ac(a2-3)Gal(b1-3)]Neu5Ac(a2-3)Gal(b1-4)]GlcNAc
# How it was run: as §1
# Neu5Ac(a2-3)Gal(b1-4)Glc = target: Neu5Ac(a2-3)Gal(b1-4)Glc
# How it was run: as §1
# [24] = target: Neu5Ac(a2-3)Gal(b1-4)GlcNAc
# How it was run: as §1
# [25] = target: Neu5Ac(a2-3)Gal(b1-4)GlcNAc(b1-2)Man
# How it was run: as §1
# [26] = target: Neu5Ac(a2-3)Gal(b1-4)GlcNAc(b1-2)Man(a1-3)[GlcNAc(b1-4)][Neu5Ac(a2-3)Gal(b1-4)GlcNAc(b1-2)Man(a1-6)]Man(b1-4)GlcNAc(b1-4)GlcNAc
# How it was run: as §1
# [27] = target: Neu5Ac(a2-3)Gal(b1-4)GlcNAc(b1-2)Man(a1-3)[Neu5Ac(a2-3)Gal(b1-4)GlcNAc(b1-2)Man(a1-6)]Man(b1-4)GlcNAc(b1-4)GlcNAc
# How it was run: as §1
# [28] = target: Neu5Ac(a2-3)Gal(b1-4)GlcNAc(b1-2)Man(a1-3)[Neu5Ac(a2-3)Gal(b1-4)GlcNAc(b1-2)Man(a1-6)]Man(b1-4)GlcNAc(b1-4)[Fuc(a1-6)]GlcNAc
# How it was run: as §1
# [29] = target: Neu5Ac(a2-3)Gal(b1-4)GlcNAc(b1-2)Man(a1-3)[Neu5Ac(a2-6)Gal(b1-4)GlcNAc(b1-2)Man(a1-6)]Man(b1-4)GlcNAc(b1-4)GlcNAc
# How it was run: as §1
# [30] = target: Neu5Ac(a2-3)Gal(b1-4)GlcNAc(b1-2)[Neu5Ac(a2-3)Gal(b1-4)GlcNAc(b1-4)]Man(a1-3)[GlcNAc(b1-4)][Neu5Ac(a2-3)Gal(b1-4)GlcNAc(b1-2)[Neu5Ac(a2-3)Gal(b1-4)GlcNAc(b1-6)]Man(a1-6)]Man(b1-4)GlcNAc(b1-4)GlcNAc
# How it was run: as §1
# [31] = target: Neu5Ac(a2-3)Gal(b1-4)GlcNAc(b1-2)[Neu5Ac(a2-3)Gal(b1-4)GlcNAc(b1-4)]Man(a1-3)[GlcNAc(b1-4)][Neu5Ac(a2-3)Gal(b1-4)GlcNAc(b1-4)Man(a1-6)]Man(b1-4)GlcNAc(b1-4)GlcNAc
# How it was run: as §1
# [32] = target: Neu5Ac(a2-3)Gal(b1-4)GlcNAc(b1-2)[Neu5Ac(a2-3)Gal(b1-4)GlcNAc(b1-6)]Man(a1-6)[Neu5Ac(a2-3)Gal(b1-4)GlcNAc(b1-2)Man(a1-3)][GlcNAc(b1-4)]Man(b1-4)GlcNAc(b1-4)GlcNAc
# How it was run: as §1
# [33] = target: Neu5Ac(a2-3)Gal(b1-4)GlcNAc(b1-3)Gal
# How it was run: as §1
# [34] = target: Neu5Ac(a2-3)Gal(b1-4)GlcNAc(b1-3)Gal(b1-3)GlcNAc
# How it was run: as §1
# [35] = target: Neu5Ac(a2-3)Gal(b1-4)GlcNAc(b1-3)Gal(b1-4)GlcNAc
# How it was run: as §1
# [36] = target: Neu5Ac(a2-3)Gal(b1-4)GlcNAc(b1-3)Gal(b1-4)GlcNAc(b1-2)Man(a1-3)[Neu5Ac(a2-3)Gal(b1-4)GlcNAc(b1-3)Gal(b1-4)GlcNAc(b1-2)Man(a1-6)]Man(b1-4)GlcNAc(b1-4)GlcNAc
# How it was run: as §1
# [37] = target: Neu5Ac(a2-3)Gal(b1-4)GlcNAc(b1-3)Gal(b1-4)GlcNAc(b1-3)Gal(b1-4)GlcNAc
# How it was run: as §1
# [38] = target: Neu5Ac(a2-3)Gal(b1-4)GlcNAc(b1-3)Gal(b1-4)GlcNAc(b1-3)Gal(b1-4)GlcNAc(b1-2)Man(a1-3)[Neu5Ac(a2-3)Gal(b1-4)GlcNAc(b1-3)Gal(b1-4)GlcNAc(b1-3)Gal(b1-4)GlcNAc(b1-2)Man(a1-6)]GalNAc
# How it was run: as §1
# [39] = target: Neu5Ac(a2-3)Gal(b1-4)GlcNAc(b1-3)Gal(b1-4)GlcNAc(b1-3)GalNAc
# How it was run: as §1
# [40] = target: Neu5Ac(a2-3)Gal(b1-4)GlcNAc(b1-3)Gal(b1-4)GlcNAc(b1-3)[Neu5Ac(a2-3)Gal(b1-4)GlcNAc(b1-3)Gal(b1-4)GlcNAc(b1-6)]GalNAc
# How it was run: as §1
# [41] = target: Neu5Ac(a2-3)Gal(b1-4)GlcNAc(b1-3)Gal(b1-4)GlcNAc(b1-6)[Gal(b1-3)]GalNAc
# How it was run: as §1
# [42] = target: Neu5Ac(a2-3)Gal(b1-4)GlcNAc(b1-3)Gal(b1-4)[Fuc(a1-3)]GlcNAc
# How it was run: as §1
# [43] = target: Neu5Ac(a2-3)Gal(b1-4)GlcNAc(b1-3)GalNAc
# How it was run: as §1
binder,measurement,setting,value
"HA-11100 (Pseudomonas aeruginosa), Q02G51_PSEAB (protein) QFNPNEIKISQQGKTTLIDQSTQRAIINWKGFDVSADEAVRFNQPGVTSSTLNRVTAGQESVIAGRISAPGQVIIYNSNGVVFSGSAKVDVGSLITTTANISDEHFRQGKLIFDQPGNPDARIVNDGSISVAEKGLAAFVAPSVANNGVINARLGTVAMAAGNAATIDLYG",glycan array binding signal (z-score),Neu5Ac(a2-3)Gal,-0.148
same,glycan array binding signal (z-score),[1],-0.024
same,glycan array binding signal (z-score),[2],-0.098
same,glycan array binding signal (z-score),[3],-0.114
same,glycan array binding signal (z-score),[4],-0.345
same,glycan array binding signal (z-score),[5],-0.214
same,glycan array binding signal (z-score),[6],-0.333
same,glycan array binding signal (z-score),[7],-0.21
same,glycan array binding signal (z-score),[8],-0.402
same,glycan array binding signal (z-score),[9],-0.319
same,glycan array binding signal (z-score),[10],-0.167
same,glycan array binding signal (z-score),[11],0.114
same,glycan array binding signal (z-score),[12],-0.25
same,glycan array binding signal (z-score),[13],-0.243
same,glycan array binding signal (z-score),[14],0.236
same,glycan array binding signal (z-score),[15],-0.374
same,glycan array binding signal (z-score),[16],-0.456
same,glycan array binding signal (z-score),[17],-0.624
same,glycan array binding signal (z-score),[18],0.016
same,glycan array binding signal (z-score),[19],-0.443
same,glycan array binding signal (z-score),[20],-0.62
same,glycan array binding signal (z-score),[21],-0.414
same,glycan array binding signal (z-score),[22],-0.373
same,glycan array binding signal (z-score),[23],-0.12
same,glycan array binding signal (z-score),Neu5Ac(a2-3)Gal(b1-4)Glc,-0.314
same,glycan array binding signal (z-score),[24],-0.478
same,glycan array binding signal (z-score),[25],-0.223
same,glycan array binding signal (z-score),[26],-0.268
same,glycan array binding signal (z-score),[27],-0.258
same,glycan array binding signal (z-score),[28],-0.135
same,glycan array binding signal (z-score),[29],-0.268
same,glycan array binding signal (z-score),[30],0.14
same,glycan array binding signal (z-score),[31],-0.462
same,glycan array binding signal (z-score),[32],-0.486
same,glycan array binding signal (z-score),[33],-0.422
same,glycan array binding signal (z-score),[34],-0.434
same,glycan array binding signal (z-score),[35],-0.347
same,glycan array binding signal (z-score),[36],0.195
same,glycan array binding signal (z-score),[37],-0.481
same,glycan array binding signal (z-score),[38],-0.059
same,glycan array binding signal (z-score),[39],-0.481
same,glycan array binding signal (z-score),[40],-0.233
same,glycan array binding signal (z-score),[41],-0.11
same,glycan array binding signal (z-score),[42],-0.737
same,glycan array binding signal (z-score),[43],-0.358
